Measurements from PubChem BioAssay AID1345083 (National Center for Advancing Translational Sciences (NCATS), 2018).
The whole screen tested about 94,000 compounds, of which about 6,200 (6.6%) were called active. The inconclusive results got no clear call from the source; some entries with a clear call stand among them for comparison. Calls come from the whole dose curve; as a rule, active = well fitted inhibition curve with a large enough effect; inconclusive = small, poorly fitted or top-dose-only effect; inactive = flat fitted curve, though single readings scatter. A potency beside an inconclusive call is a rough fit, not a confirmed value.

experiment: Cytotoxic Profiling in HEK 293 Cell Line of Diverse Libraries Using Quantitative High-Throughput Screening; conditions: HEK 293 viability, ATP luminescence (CellTiter-Glo), 48-72 h; activity change, negative = cytotoxicity: at 115 µM (top of the series) unless noted; series mostly up to 115 µM; note: nearly all actives have a fitted effect of over 60% in size
Outline: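 Read-out: CellTiter-Glo ATP luminescence. Cells: HEK 293, 250 cells/well. Exposure: 48 or 72 hr, 37 degree Celsius.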
% is set by controls: 0 for no effect and ±100 for the full control effect; potency is the fitted concentration of half-maximal effect; tags give direction and shape of the fitted curve.

| Compound | outcome | Potency | activity change, negative = cytotoxicity |
| --- | --- | --- | --- |
| C[S+](=O)([O-])N1CC2(CCN(Cc3cccnc3)CC2)Cc2ccccc21 | inactive | – | – |
| CCN1c2cc(C(=O)Nc3ccc(C(C)C)cc3)ccc2C(=O)N2CCCCCC21 (stereo not drawn) | – | inconclusive: 17.8 µM [inhibitor, full curve, poor fit] | – |
| O=C1CO[C@H]2CCN(Cc3ccc4c(c3)CCO4)CC[C@@H]2N1Cc1ccc(O)cc1 | – | inconclusive: 100 µM [inhibitor, partial curve] | – |
| O=C1NCc2ccccc2CC12CCN(Cc1ccc(F)cc1)CC2 | – | inconclusive: 89.1 µM [inhibitor, partial curve, poor fit] | – |
| COCCOC1CCOC2(CCN(C(=O)Cn3c(=O)oc4ccccc43)CC2)C1 (stereo not drawn) | – | – | inactive: 10.8% |
| O=C(CN1CC2CC(C1)[C@H]1CCCC(=O)N1C2)NCc1ccccc1F (stereo partly drawn) | – | – | inactive: 13.2% |
| Cc1ccc(C2Cn3nnc(-c4noc(-c5n[nH]c6c5CCCC6)n4)c3CO2)cc1 (stereo not drawn) | – | inconclusive: 100 µM [inhibitor, single point] | – |
| c1cc(-c2nc(-c3ccc(OC4CNC4)cc3)no2)ccn1 | – | inconclusive: 56.2 µM [inhibitor, partial curve, poor fit] | – |
| CC(C)c1ccc(-n2cc(CN3CCN(C(=O)N(C)C)CC3)cn2)cc1 | – | inconclusive: 56.2 µM [inhibitor, partial curve, poor fit] | – |
| C[S+](=O)([O-])Nc1cccc(-c2cc3c(ccn3Cc3ccncc3)c(N3CCOCC3)n2)c1 | – | – | inactive: -22.3% |
| COc1ccc(-c2cc(N3CCCC(NC(=O)c4c[nH]c5ccccc45)C3)n[nH]2)cc1 (stereo not drawn) | – | inconclusive: 44.7 µM [inhibitor, partial curve, poor fit] | – |
| Cc1ccccc1C(=O)N1CCC(N2CC3CCCN3C2=O)CC1 (stereo not drawn) | – | – | inactive: -10.4% [at 172 µM] |
| CNC(=O)c1cc(C2CC2)nc2onc(C3CCN(C(C)=O)CC3)c12 | inactive [at 172 µM] | – | – |
| CN1CCCC2(Cc3ccccc3CN(C(=O)Cc3cccc(Cl)c3)C2)C1 (stereo not drawn) | – | inconclusive: 89.1 µM [inhibitor, single point] | – |
| COc1cc(OC)cc(C(=O)N2CCc3cn(C)c4cccc(c34)C2)c1 | – | inconclusive: 31.6 µM [inhibitor, partial curve] | – |
| Cc1cc2nc3n(c(=O)c2n1CC(=O)Nc1ccc2c(c1)OCO2)CCCCC3 | – | inconclusive: 50.1 µM [inhibitor, partial curve, poor fit] | – |
| Cc1cn2nc(-c3nc(C4CCCN(C(=O)c5ccc(C)s5)C4)no3)cc2c(=O)[nH]1 (stereo not drawn) | – | inconclusive: 89.1 µM [inhibitor, partial curve, poor fit] | – |
| O=C(COc1ccccc1)N1CCOc2ccc(CN3CCc4ccccc4C3)cc2C1 | – | active: 31.6 µM | – |
| Clc1ccc(-c2cnc([C@@H]3COCCN3Cc3c[nH]c4ccccc34)[nH]2)s1 | – | active: 70.8 µM | – |
| Cc1ccc(S(=O)(=O)N2CCC3(CC2)C(=O)N(CC(=O)NC(C)C)CN3c2ccccc2)cc1 | – | inconclusive: 50.1 µM [inhibitor, partial curve, poor fit] | – |
| CCc1ccccc1S(=O)(=O)N1CCN(C2CCN(Cc3cccnc3)C2=O)CC1 (stereo not drawn) | – | inconclusive: 100 µM [inhibitor, partial curve, poor fit] | – |
| CNC(=O)c1cc(C2CC2)nc2onc(C3CCN(C(=O)c4ccc(Cl)cc4)C3)c12 (stereo not drawn) | – | inconclusive: 79.4 µM [inhibitor, partial curve, poor fit] | – |
| COCc1nc(C2CCCN(C(=O)c3ccc(OC)cc3)C2)no1 (stereo not drawn) | – | – | inactive: 3.71% |

| Compound | outcome | Potency | activity change, negative = cytotoxicity |
| --- | --- | --- | --- |
| Cc1noc(C)c1-c1cc2cc(C(C)C)oc2c(NC2CCOCC2)n1 | – | active: 100 µM | – |
| CCCCN(C)C(=O)Cc1cccn1-c1cccc(Cl)c1 | – | inconclusive: 56.2 µM [inhibitor, partial curve, poor fit] | – |
| O=C(CNC(=O)c1ccc(-c2cnc3ccccc3c2)cc1)NC1CCCC1 | – | inconclusive: 89.1 µM [inhibitor, single point] | – |
| Cc1ccccc1OCc1nc(C2CN(C(=O)NCc3ccccc3)C2)no1 | – | inconclusive: 7.94 µM [inhibitor, full curve, poor fit] | – |
| Cn1nccc1C(=O)N1CCC(c2cc(-c3ccc(F)cc3)n[nH]2)CC1 | – | inconclusive: 79.4 µM [inhibitor, partial curve, poor fit] | – |
| O=C(CC1CCCCC1)N1CCN(c2cc(-c3ccccc3)[nH]n2)CC1 | – | inconclusive: 50.1 µM [inhibitor, partial curve, poor fit] | – |
| COc1cccc(C(=O)N2CCCC3(C2)NC(=O)N(Cc2ccc(C)cc2)C3=O)c1OC (stereo not drawn) | – | inconclusive: 100 µM [inhibitor, single point] | – |
| FC(F)(F)c1ccc(CN2CC[C@H](c3nc4ccc(C(F)(F)F)cc4[nH]3)C2)cc1 | – | active: 35.5 µM | – |
| COc1ccc(Cn2c(C3CCN(C(=O)c4ccc(Cl)cc4)CC3)n[nH]c2=O)cc1 | – | – | inactive: -0.729% |
| CN(C(=O)Nc1ccccc1)C1CCCc2ccccc21 (stereo not drawn) | – | inconclusive: 126 µM [inhibitor, single point] | – |
| CCN(CC1CCN(CCc2ccccc2C)CC1)C(=O)C1C=CCN1 (stereo not drawn) | – | – | inactive: -21.8% |
| COc1ccc(CNC(=O)N2CCCCC2c2noc(COc3ccc(C)cc3)n2)cc1 (stereo not drawn) | – | inconclusive: 63.1 µM [inhibitor, partial curve, poor fit] | – |
| Cc1ccccc1C(=O)N1CCC(N2C(=O)c3c(c(C)nn3-c3ccccc3)C2C)CC1 (stereo not drawn) | – | active: 44.7 µM | – |
| Cc1c(O)cccc1C(=O)N1CCCN(Cc2ccc(F)cc2)C(C(C)C)C1 (stereo not drawn) | – | active: 44.7 µM | – |
| Cn1nccc1C(=O)NC1CCCN(c2cc(N3CCCC3)ncn2)C1 (stereo not drawn) | – | – | inactive: -1.62% |
| CC(C)(C)c1cc(C(=O)NCc2ccc(F)cc2)nn2cccc12 | – | inconclusive: 100 µM [inhibitor, partial curve, poor fit] | – |
| O=C(c1ccc(Cl)cc1)N1CCC(C(=O)N2CCC(c3nc4ncccc4[nH]3)C2)CC1 (stereo not drawn) | – | – | inactive: -0.124% |
| CCc1nncn1C1CCN(S(=O)(=O)c2ccc(OC)c(Cl)c2)CC1 | – | inconclusive: 70.8 µM [inhibitor, partial curve, poor fit] | – |
| O=C(NCc1cccc(C(F)(F)F)c1)c1ccc2nnc(-c3ccc(OC(F)(F)F)cc3)n2c1 | – | inconclusive: 31.6 µM [inhibitor, full curve] | – |
| CC(C(=O)N1CCN(c2cc(-c3ccc(Cl)cc3)[nH]n2)CC1)c1ccccc1 (stereo not drawn) | – | active: 28.2 µM | – |
| CCn1cc(S(=O)(=O)N2CCCC(Cc3noc(-c4cccnc4)n3)C2)cn1 (stereo not drawn) | – | – | inactive: -27.1% |
| CCOc1ccccc1NC(=O)N1CCCCCCNC(=O)[C@H]2CCC[C@H]21 | – | inconclusive: 89.1 µM [inhibitor, single point] | – |
| Cc1noc(C)c1-c1cnc(Nc2cc(F)cc(N3CCOCC3)c2)c2c1CCO2 | – | inconclusive: 22.4 µM [inhibitor, full curve, poor fit] | – |

| Compound | outcome | Potency | activity change, negative = cytotoxicity |
| --- | --- | --- | --- |
| COc1ccc(C(=O)N2CCN(CCn3nc4n(c3=O)CCCC4)CC2)cc1 | – | – | inactive: -17.2% |
| CCOc1ccccc1CN1C[C@@H](CO)[C@H](NC(=O)c2cccnc2)C1 | – | inconclusive: 10 µM [inhibitor, partial curve, poor fit] | – |
| CC(C)n1cc2cc(C(=O)NC3CCCCCC3)sc2c1 | – | inconclusive: 50.1 µM [inhibitor, partial curve, poor fit] | – |
| Cc1ccc(OCc2cc(C(=O)NC(Cc3ccccc3)c3ccccc3)no2)cn1 (stereo not drawn) | – | inconclusive: 17.8 µM [inhibitor, full curve] | – |
| COC(=O)C1=C(C)N=C2SC=C(CC(=O)NCc3ccccc3)N2C1c1cccc(OC)c1 (stereo not drawn) | – | inconclusive: 89.1 µM [inhibitor, single point] | – |
| C[C@@]12CCC(=O)C[C@@H]1C[C@H](OC(=O)NCc1ccccc1)CC2 | – | – | inactive: -18.2% |
| COc1ccccc1-c1cccc(CN2CCCC(C(=O)N3CCOCC3)C2)c1 (stereo not drawn) | – | inconclusive: 89.1 µM [inhibitor, single point] | – |
| COCCS(=O)(=O)c1ncc(CN(C)C(C)c2ccon2)n1Cc1ccccc1 (stereo not drawn) | – | – | inactive: -5.63% |
| Cc1ccc(N2CCC(NC(=O)c3ccc(Br)o3)C2=O)cc1C (stereo not drawn) | – | inconclusive: 100 µM [inhibitor, single point] | – |
| Cc1cccc(CC(=O)N2CCC(n3cc(-c4nc(-c5ccccc5)no4)nn3)CC2)c1 | – | – | inactive: -7% |
| COc1ccc(-c2ccc(-c3nc(CC(C)C)no3)cn2)c2cccnc12 | – | active: 25.1 µM | – |
| O=C(CCn1cnnn1)N1CC(c2noc(C3CCCN3CC3CC3)n2)C1 (stereo not drawn) | – | – | inactive: -8.47% |
| CC(C)c1noc(-c2cccn3c(CNC(=O)c4ccc(F)c(F)c4)nnc23)n1 | – | – | inactive: 3.42% |
| CCc1cccc(NC(=O)Nc2cccc(-c3ccc(N4CCOCC4)nn3)c2)c1 | – | active: 39.8 µM | – |
| O=C(Nc1ccc(Cl)cc1Cl)c1cnn2ncccc12 | – | inconclusive: 126 µM [inhibitor, single point] | – |
| CC1=C[C@@H](CNC(=O)Nc2ccccc2)[C@H](C(C)C)C[C@H]1CC(=O)NCc1cccnc1 | – | inconclusive: 100 µM [inhibitor, partial curve, poor fit] | – |
| COc1ccc(-c2cc3c(cn2)CN(CCc2ccccc2)CCN3)cc1OC | – | active: 63.1 µM | – |
| COc1ccccc1-c1onc(C)c1C(=O)NCCc1cccc(Cl)c1 | – | inconclusive: 79.4 µM [inhibitor, partial curve, poor fit] | – |
| O=[S+]1([O-])CCN(Cc2ccc(-c3cnc4c(OCc5ccccc5)nccn34)cc2)CC1 | – | active: 35.5 µM | – |
| COc1cccc(NC(=O)c2ccc3c(c2)NC(C)(COc2cccnc2)CO3)c1 (stereo not drawn) | – | active: 50.1 µM | – |
| COc1cccc(CN2CCCC3(Cc4ccccc4CNC3=O)C2)c1 (stereo not drawn) | – | – | inactive: -3.46% |
| Cc1nc([C@@H]2CN(Cc3ccc(C(F)(F)F)cc3)C[C@H]2C(N)=O)n[nH]1 | – | inconclusive: 50.1 µM [inhibitor, partial curve, poor fit] | – |
